Source: PubChem BioAssay AID1645852 (National Center for Advancing Translational Sciences (NCATS), 2021)
Out of some 1,200 compounds screened, about 160 (13%) were called active. The shares of active, inactive and inconclusive entries below differ from those in the screen. The call rests on the fitted dose curve; in most records, active means well fitted inhibition curve with a large enough effect; inconclusive means small, poorly fitted or top-dose-only effect; inactive means no such curve, though single readings can be large or run the other way. Where the call is inconclusive, the potency comes from a doubtful curve fit.

Molecular target: Inositol hexakisphosphate kinase 1 (Homo sapiens) (UniProt Q92551)
UniProt Q92551, sequence (Q92551 whole entry, looked up): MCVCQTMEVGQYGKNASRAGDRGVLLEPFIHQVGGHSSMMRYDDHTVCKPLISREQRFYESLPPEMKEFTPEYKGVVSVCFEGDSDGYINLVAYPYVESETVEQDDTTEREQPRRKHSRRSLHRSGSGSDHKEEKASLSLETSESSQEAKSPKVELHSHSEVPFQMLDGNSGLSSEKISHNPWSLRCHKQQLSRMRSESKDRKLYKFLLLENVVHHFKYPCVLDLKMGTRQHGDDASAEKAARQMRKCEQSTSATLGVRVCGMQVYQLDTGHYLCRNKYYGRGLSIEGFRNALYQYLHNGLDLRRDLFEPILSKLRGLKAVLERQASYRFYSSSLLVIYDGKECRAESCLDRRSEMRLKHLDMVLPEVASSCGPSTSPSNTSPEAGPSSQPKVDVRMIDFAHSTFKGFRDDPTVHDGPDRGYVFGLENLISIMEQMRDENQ
Assay: Confirmatory qHTS assay for small molecule inhibitors of Inositol hexaphosphate kinase 1 (IP6K1); further: nearly all actives have a fitted effect of over 65% in size
Settings: recombinant IP6K1 kinase, ADP-Glo luminescence, 2 h; series mostly up to 49 µM; activity change, negative = inhibition: at the top concentration
Text: Assay Provider: Huijun Wei, M.S., Ph.D. School of Medicine, Johns Hopkins University, Baltimore, MD Inositol hexakisphosphate kinases (IP6Ks) catalyze pyrophosphorylation of inositol hexakisphosphate (IP6) into inositol 5-diphospho-1,2,3,4,6-pentakisphosphate (IP7), which is involved in numerous areas of cell physiology including glucose homeostasis, blood coagulation and neurological development. Inhibition of IP6Ks may be effective for the treatment of Type II diabetes, thrombosis, and psychiatric disorders. We performed a quantitative high throughput screen (qHTS) of 158,410 compounds for IP6K1 inhibitors using ankinase activity ADP-Glo Max assay. […] Medicinal chemistry SAR efforts in three chemical series identified potent IP6K1 inhibitors, which were further validated in an orthogonal LC-MS IP7 analysis.
PROTOCOL TABLE SEQUENCE No. (e.g., 1, 2, 3, etc.); […] (e.g., Cells, Incubation, Reagent, etc.); VALUE and DESCRIPTION. 1. Reagent, 3 uL of 1.3 mM ATP and 130 uM IP6 mixture in assay buffer was dispensed to a white, 1536-well assay plate. 2. Compound, 23 nL of compounds of the top two doses (57.5 uM and 19.1 uM final concentration) of the libraries were dispensed into the mixture using the Kalypsis pintool. 3. Reagent, 1 uL of 2.4 uM IP6K1 was dispensed to the assay plates. 4. Incubation, 2 hr incubation at room temperature. 5. Reagent, 2 uL of ADP-Glo reagent was added to the wells. 6. Incubation, 1 hr incubation at room temperature. 7. Reagent, 4 uL or ADP-Glo substate was added to the wells. 8. Incubation, 45 min incubation at room temperature. 9. Detection, luminescence signal was detected using the ViewLux microplate imager (PerkinElmer).
On the % scale 0 is the no-effect control and ±100 the full control effect; potency means the concentration at half of the fitted maximal effect; tags describe the fitted curve by direction and shape.

Row | SMILES | Potency | activity change, negative = inhibition
1 | C=Cc1cc(O)cc2nc(-c3ccc(O)c(F)c3)oc12 | inconclusive: 10.3 µM [inhibitor, partial curve] | –
2 | Cc1ccc(-c2nnn3c2nc(N2CCC(C)CC2)c2ccccc23)cc1 | – | inactive: -8.89%
3 | CCOCCCNC(=O)c1ccc2c(c1)NC(=O)C(CS(=O)(=O)Cc1ccc(F)cc1Cl)N2 (configuration not stated) | – | inactive: 9.33%
4 | COc1ccc(-c2cc3nc(N)cc(=O)n3[nH]2)cc1 | inconclusive: 8.2 µM [inhibitor, partial curve] | –
5 | Cc1ccc(Sc2c(C)nn(C(=O)COc3ccccc3)c2C)cc1 | inconclusive: 8.2 µM [inhibitor, partial curve] | –
6 | C#C[C@]1(O)CC[C@H]2[C@@H]3CCC4=C/C(=N/O)CC[C@@H]4[C@H]3CC[C@@]21CC | active: 1.84 µM | –
7 | CCC(=O)N1CCc2cc(Br)cc(S(=O)(=O)CCC(=O)N3CCN(c4ccccc4OC)CC3)c21 | – | inactive: -5.59%
8 | CCCCCCCCn1cc(CN(CC)CC)c2cc(-c3cnc(N)nc3)ccc21 | inconclusive: 13 µM [inhibitor, partial curve] | –
9 | Cc1ccc(S(=O)(=O)Nc2cccc(-c3cn4cccc(C)c4n3)c2)cc1 | – | inactive: -1.7%
10 | Cc1cccc(Oc2nc3c(c(=O)n(C)c(=O)n3C)n2C)c1 | – | inactive: -17.9%
11 | O=C1c2cnc(-c3cccc(CO)c3)nc2OCCN1c1ccccc1 | inconclusive: 23.7 µM [inhibitor, partial curve] | –
12 | Cc1ccc(/C=C/c2nc3ccccc3[nH]2)cc1 | active: 10.3 µM | –
13 | COc1ccc(-c2nnc(C3CCN(C(=O)c4ccccc4F)CC3)o2)cc1 | inconclusive: 14.6 µM [inhibitor, single point] | –
14 | CCOC(=O)c1oc2c(c1C)-c1nn(Cc3ccc(Cl)cc3)cc1CC2 | inconclusive: 23.1 µM [inhibitor, partial curve, poor fit] | –
15 | O=Cc1ccc(O)c(O)c1O | inconclusive: 9.2 µM [inhibitor, partial curve, poor fit] | –
16 | COc1cccc(Nc2cc(-c3cccs3)nc3c(C)noc23)c1 | inconclusive: 14.9 µM [inhibitor, partial curve] | –
17 | CCOc1ccc(Cn2c(CNS(=O)(=O)c3ccc(Cl)s3)nc3cccnc32)cc1 | inconclusive: 9.2 µM [inhibitor, partial curve] | –
18 | O=C1N(Cc2ccc(F)cc2)C[C@H]2CN(Cc3ccccn3)CCN12 | inconclusive: 33.5 µM [inhibitor, partial curve] | –
19 | N#C/C(=C\c1ccc(O)c(O)c1)C(=O)Nc1ccccc1 | active: 16.4 µM | –
20 | O=C(Nc1ccc2oc(-c3ccccc3F)nc2c1)c1ccccc1Cl | inconclusive: 7.31 µM [inhibitor, partial curve] | –
21 | Cc1c(C)n(Cc2ccc(-c3ccccc3C(=O)O)cc2)c2ccc(C(=O)N[C@@H](C)c3ccc([N+](=O)[O-])cc3)cc12 | inconclusive: 16.4 µM [inhibitor, single point] | –

Row | SMILES | Potency | activity change, negative = inhibition
22 | CN(C)C(=O)N1C2CCC1CN(c1ccc(C(F)(F)F)cc1)C2 | inconclusive: 16.2 µM [inhibitor, partial curve] | –
23 | O=C1COc2ccc(-c3ccoc3)nc2CN1Cc1ccc(C(F)(F)F)cc1 | inconclusive: 23.7 µM [inhibitor, partial curve] | –
24 | CCN1CCN(C(c2ccc(F)cc2)c2sc3nc(-c4ccco4)nn3c2O)CC1 (configuration not stated) | inconclusive: 10.3 µM [inhibitor, partial curve, poor fit] | –
25 | COC(=O)c1ccc(NC(=O)CN(C)S(=O)(=O)c2ccc(Br)s2)cc1 | inconclusive: 18.4 µM [inhibitor, partial curve] | –
26 | COc1ccc(NC(=O)CN2CCN(Cc3ccccc3Cl)S2(=O)=O)cc1Cl | inconclusive: 14.6 µM [inhibitor, partial curve] | –
27 | Cc1ccc(CSc2ncc(Cl)c(C(=O)Oc3ccc(F)cc3)n2)cc1 | – | inactive: 13.4%
28 | CCCC(=O)c1cc(O)c(O)cc1O | inconclusive: 31.6 µM [inhibitor, partial curve] | –
29 | COc1cc(O)c2c(c1)/C=C/C[C@H](O)[C@H](O)C(=O)/C=C\C[C@H](C)OC2=O | inconclusive: 25.9 µM [inhibitor, partial curve, poor fit] | –
30 | CCOc1ccc(C2C(C(=O)OC)=C(C)NC3=C2C(=O)c2ccccc23)cc1OC (configuration not stated) | inconclusive: 9.2 µM [inhibitor, partial curve] | –
31 | CC(=O)c1cccc(Nc2ncnc3c2cnn3C)c1 | inconclusive: 18.4 µM [inhibitor, partial curve] | –
32 | COc1ccc(N2CCN(CC(O)COc3c(OC)cccc3OC)CC2)cc1 (configuration not stated) | – | inactive: -14.9%
33 | CC(C)(C)OC(=O)N1CCC(c2c(C(=O)NCCc3ccccc3)cnn2-c2ccc(F)cc2)CC1 | – | inactive: 20.2%
34 | O=C(O)CSc1cc(NS(=O)(=O)c2ccc(Br)cc2)c2ccccc2c1O | inconclusive: 20.6 µM [inhibitor, partial curve] | –
35 | NC(=O)Cc1c[nH]c2ncc(-c3ccc(Cl)cc3)cc12 | inconclusive: 15.8 µM [inhibitor, partial curve] | –
36 | CCOC(=O)c1ccc(NC(=O)c2c(NCc3cccs3)sc3c2CCCC3)cc1 | inconclusive: 18.4 µM [inhibitor, partial curve, poor fit] | –
37 | O=Cc1cccc(-c2ccccc2F)c1 | inconclusive: 31.6 µM [inhibitor, partial curve, poor fit] | –
38 | COc1ccc(CNC(=O)CSc2ncc3c(n2)-c2cc(Cl)ccc2N(Cc2ccccc2)S3(=O)=O)cc1 | – | inactive: 8.77%
39 | Cc1ccc(C(=O)Nc2ccc3oc(-c4cccnc4)nc3c2)c(Cl)c1 | inconclusive: 0.92 µM [inhibitor, full curve] | –
40 | O=C1NC(=O)/C(=C/c2ccc(-c3ccc(F)cc3O)o2)S1 | active: 2.59 µM | –
41 | CCOC(=O)c1cccc(NC(=O)N2CC[C@@H](CC(=O)Nc3nccs3)[C@@H](CC)C2)c1 | inconclusive: 18.4 µM [inhibitor, partial curve] | –
42 | Cc1ccccc1-c1cc(C(=O)NCc2cnn(C)c2)c2c(c1)N(C)CCO2 | inconclusive: 9.43 µM [inhibitor, partial curve, poor fit] | –
